Measurements from article PMC12820563, “FoxP3 forms a head-to-head dimer in vivo and stabilizes its multimerization on adjacent microsatellites”.
Some of the results follow.

biological target: T1, MBP-FoxP1dN (Mus musculus, UniProt P58462 326-579); experiment: PD-seq (MBP pull-down with sequencing); 20 mM Tris-HCl pH 7.5, 100 mM NaCl, 1.5 mM MgCl2, 0.4 uM protein, 0.1 uM dsDNA library, 30 min, room temperature, amylose pull-down; high values mean tight binding; settings: protein: recombinant; tags: His6-MBP; chain copies: 2; dsDNA, one strand shown
T1 sequence: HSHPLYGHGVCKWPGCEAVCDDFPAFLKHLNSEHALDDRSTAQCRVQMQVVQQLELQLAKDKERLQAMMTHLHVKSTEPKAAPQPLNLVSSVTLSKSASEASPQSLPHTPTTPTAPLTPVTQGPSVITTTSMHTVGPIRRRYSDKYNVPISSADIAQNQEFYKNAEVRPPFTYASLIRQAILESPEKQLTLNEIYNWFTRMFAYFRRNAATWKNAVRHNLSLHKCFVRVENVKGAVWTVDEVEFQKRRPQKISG
Outline: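 Binding is the reads-per-million enrichment of pull-down relative to input, pooled across replicates. For this, 0.4 µM His6-MBP-tagged mouse FoxP3 or FoxP1 fragment lacking the N-terminus, made in E. coli, was incubated with 0.1 µM Klenow-filled double-stranded degenerate DNA library for 30 min at room temperature in Tris pH 7.5 buffer with NaCl and MgCl2. Complexes bound to amylose resin were washed three times before proteinase K released the DNA for PCR barcoding and Illumina sequencing.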

| Sequence | binding signal |
| --- | --- |
| GATGATTGTTCTCCCAGCTGATGAATTTGTCCCCTCGAGTAAACAAATTTTCCTAATCTTTCTGTTCAAGCGCCATCTAC | 0.96 RPM ratio (pull-down/input) |
| GATGATTGTTCTCCCAGCTGATGAATTATGAACATCGAGTAAACAAATTTTCCTAATCTTTCTGTTCAAGCGCCATCTAC | 1.17 RPM ratio (pull-down/input) |
| GATGATTGTTCTCCCAGCTGATGAATTACCTGGATCGAGTAAACAAATTTTCCTAATCTTTCTGTTCAAGCGCCATCTAC | 0.904 RPM ratio (pull-down/input) |
| GATGATTGTTCTCCCAGCTGATGAATTTCGTGATTCGAGTAAACAAATTTTCCTAATCTTTCTGTTCAAGCGCCATCTAC | 0.952 RPM ratio (pull-down/input) |
| GATGATTGTTCTCCCAGCTGATGAATTCGCAGAATCGAGTAAACAAATTTTCCTAATCTTTCTGTTCAAGCGCCATCTAC | 0.95 RPM ratio (pull-down/input) |
| GATGATTGTTCTCCCAGCTGATGAATTGACTAAGTCGAGTAAACAAATTTTCCTAATCTTTCTGTTCAAGCGCCATCTAC | 1.03 RPM ratio (pull-down/input) |
| GATGATTGTTCTCCCAGCTGATGAATTTTTGTTGTCGAGTAAACAAATTTTCCTAATCTTTCTGTTCAAGCGCCATCTAC | 2.85 RPM ratio (pull-down/input) |
| GATGATTGTTCTCCCAGCTGATGAATTCTCACACTCGAGTAAACAAATTTTCCTAATCTTTCTGTTCAAGCGCCATCTAC | 0.906 RPM ratio (pull-down/input) |
| GATGATTGTTCTCCCAGCTGATGAATTCGGCCGGTCGAGTAAACAAATTTTCCTAATCTTTCTGTTCAAGCGCCATCTAC | 0.766 RPM ratio (pull-down/input) |
| GATGATTGTTCTCCCAGCTGATGAATTTTTAAGTTCGAGTAAACAAATTTTCCTAATCTTTCTGTTCAAGCGCCATCTAC | 0.97 RPM ratio (pull-down/input) |
| GATGATTGTTCTCCCAGCTGATGAATTATTACCGTCGAGTAAACAAATTTTCCTAATCTTTCTGTTCAAGCGCCATCTAC | 1.13 RPM ratio (pull-down/input) |
| GATGATTGTTCTCCCAGCTGATGAATTCCCAGCGTCGAGTAAACAAATTTTCCTAATCTTTCTGTTCAAGCGCCATCTAC | 0.949 RPM ratio (pull-down/input) |
| GATGATTGTTCTCCCAGCTGATGAATTTCCAACCTCGAGTAAACAAATTTTCCTAATCTTTCTGTTCAAGCGCCATCTAC | 0.748 RPM ratio (pull-down/input) |
| GATGATTGTTCTCCCAGCTGATGAATTCGCAGCGTCGAGTAAACAAATTTTCCTAATCTTTCTGTTCAAGCGCCATCTAC | 0.904 RPM ratio (pull-down/input) |
| GATGATTGTTCTCCCAGCTGATGAATTTCCGAGATCGAGTAAACAAATTTTCCTAATCTTTCTGTTCAAGCGCCATCTAC | 0.797 RPM ratio (pull-down/input) |
| GATGATTGTTCTCCCAGCTGATGAATTTTTACTTTCGAGTAAACAAATTTTCCTAATCTTTCTGTTCAAGCGCCATCTAC | 1.05 RPM ratio (pull-down/input) |
| GATGATTGTTCTCCCAGCTGATGAATTCACGAATTCGAGTAAACAAATTTTCCTAATCTTTCTGTTCAAGCGCCATCTAC | 0.946 RPM ratio (pull-down/input) |
| GATGATTGTTCTCCCAGCTGATGAATTTTTAAACTCGAGTAAACAAATTTTCCTAATCTTTCTGTTCAAGCGCCATCTAC | 0.924 RPM ratio (pull-down/input) |
| GATGATTGTTCTCCCAGCTGATGAATTGAATGTATCGAGTAAACAAATTTTCCTAATCTTTCTGTTCAAGCGCCATCTAC | 1.15 RPM ratio (pull-down/input) |
| GATGATTGTTCTCCCAGCTGATGAATTGGTGAGGTCGAGTAAACAAATTTTCCTAATCTTTCTGTTCAAGCGCCATCTAC | 0.846 RPM ratio (pull-down/input) |
| GATGATTGTTCTCCCAGCTGATGAATTTATCGGGTCGAGTAAACAAATTTTCCTAATCTTTCTGTTCAAGCGCCATCTAC | 0.925 RPM ratio (pull-down/input) |

| Sequence | binding signal |
| --- | --- |
| GATGATTGTTCTCCCAGCTGATGAATTTCAGAGGTCGAGTAAACAAATTTTCCTAATCTTTCTGTTCAAGCGCCATCTAC | 0.806 RPM ratio (pull-down/input) |
| GATGATTGTTCTCCCAGCTGATGAATTGATAATCTCGAGTAAACAAATTTTCCTAATCTTTCTGTTCAAGCGCCATCTAC | 1.04 RPM ratio (pull-down/input) |
| GATGATTGTTCTCCCAGCTGATGAATTAGAACCATCGAGTAAACAAATTTTCCTAATCTTTCTGTTCAAGCGCCATCTAC | 0.938 RPM ratio (pull-down/input) |
| GATGATTGTTCTCCCAGCTGATGAATTAACAGCTTCGAGTAAACAAATTTTCCTAATCTTTCTGTTCAAGCGCCATCTAC | 0.909 RPM ratio (pull-down/input) |
| GATGATTGTTCTCCCAGCTGATGAATTTTTCTAATCGAGTAAACAAATTTTCCTAATCTTTCTGTTCAAGCGCCATCTAC | 1.13 RPM ratio (pull-down/input) |
| GATGATTGTTCTCCCAGCTGATGAATTGCACCTGTCGAGTAAACAAATTTTCCTAATCTTTCTGTTCAAGCGCCATCTAC | 1.12 RPM ratio (pull-down/input) |
| GATGATTGTTCTCCCAGCTGATGAATTTCAATGTTCGAGTAAACAAATTTTCCTAATCTTTCTGTTCAAGCGCCATCTAC | 0.933 RPM ratio (pull-down/input) |
| GATGATTGTTCTCCCAGCTGATGAATTGTTGAAATCGAGTAAACAAATTTTCCTAATCTTTCTGTTCAAGCGCCATCTAC | 1.21 RPM ratio (pull-down/input) |
| GATGATTGTTCTCCCAGCTGATGAATTGAGCCAGTCGAGTAAACAAATTTTCCTAATCTTTCTGTTCAAGCGCCATCTAC | 0.784 RPM ratio (pull-down/input) |
| GATGATTGTTCTCCCAGCTGATGAATTTTTTCCCTCGAGTAAACAAATTTTCCTAATCTTTCTGTTCAAGCGCCATCTAC | 0.85 RPM ratio (pull-down/input) |
| GATGATTGTTCTCCCAGCTGATGAATTAGGGGTGTCGAGTAAACAAATTTTCCTAATCTTTCTGTTCAAGCGCCATCTAC | 0.896 RPM ratio (pull-down/input) |
| GATGATTGTTCTCCCAGCTGATGAATTGAGACTCTCGAGTAAACAAATTTTCCTAATCTTTCTGTTCAAGCGCCATCTAC | 0.822 RPM ratio (pull-down/input) |
| GATGATTGTTCTCCCAGCTGATGAATTCCGAGTATCGAGTAAACAAATTTTCCTAATCTTTCTGTTCAAGCGCCATCTAC | 0.918 RPM ratio (pull-down/input) |
| GATGATTGTTCTCCCAGCTGATGAATTGAGCCTGTCGAGTAAACAAATTTTCCTAATCTTTCTGTTCAAGCGCCATCTAC | 0.804 RPM ratio (pull-down/input) |
| GATGATTGTTCTCCCAGCTGATGAATTAATTATATCGAGTAAACAAATTTTCCTAATCTTTCTGTTCAAGCGCCATCTAC | 1.11 RPM ratio (pull-down/input) |
| GATGATTGTTCTCCCAGCTGATGAATTCGTGCGTTCGAGTAAACAAATTTTCCTAATCTTTCTGTTCAAGCGCCATCTAC | 1.01 RPM ratio (pull-down/input) |
| GATGATTGTTCTCCCAGCTGATGAATTATGGAGATCGAGTAAACAAATTTTCCTAATCTTTCTGTTCAAGCGCCATCTAC | 0.886 RPM ratio (pull-down/input) |
| GATGATTGTTCTCCCAGCTGATGAATTCTTGAAGTCGAGTAAACAAATTTTCCTAATCTTTCTGTTCAAGCGCCATCTAC | 0.868 RPM ratio (pull-down/input) |
| GATGATTGTTCTCCCAGCTGATGAATTTCCGCAGTCGAGTAAACAAATTTTCCTAATCTTTCTGTTCAAGCGCCATCTAC | 0.873 RPM ratio (pull-down/input) |
| GATGATTGTTCTCCCAGCTGATGAATTCGGGGGCTCGAGTAAACAAATTTTCCTAATCTTTCTGTTCAAGCGCCATCTAC | 0.717 RPM ratio (pull-down/input) |
| GATGATTGTTCTCCCAGCTGATGAATTTTTTCTGTCGAGTAAACAAATTTTCCTAATCTTTCTGTTCAAGCGCCATCTAC | 0.986 RPM ratio (pull-down/input) |

| Sequence | binding signal |
| --- | --- |
| GATGATTGTTCTCCCAGCTGATGAATTAGAGGTCTCGAGTAAACAAATTTTCCTAATCTTTCTGTTCAAGCGCCATCTAC | 0.802 RPM ratio (pull-down/input) |
| GATGATTGTTCTCCCAGCTGATGAATTGCTTTACTCGAGTAAACAAATTTTCCTAATCTTTCTGTTCAAGCGCCATCTAC | 1.01 RPM ratio (pull-down/input) |
| GATGATTGTTCTCCCAGCTGATGAATTCCCCGGATCGAGTAAACAAATTTTCCTAATCTTTCTGTTCAAGCGCCATCTAC | 0.788 RPM ratio (pull-down/input) |
| GATGATTGTTCTCCCAGCTGATGAATTTGTACCATCGAGTAAACAAATTTTCCTAATCTTTCTGTTCAAGCGCCATCTAC | 1.17 RPM ratio (pull-down/input) |
| GATGATTGTTCTCCCAGCTGATGAATTGAGTAAGTCGAGTAAACAAATTTTCCTAATCTTTCTGTTCAAGCGCCATCTAC | 0.921 RPM ratio (pull-down/input) |
| GATGATTGTTCTCCCAGCTGATGAATTTCTGGCCTCGAGTAAACAAATTTTCCTAATCTTTCTGTTCAAGCGCCATCTAC | 0.797 RPM ratio (pull-down/input) |
| GATGATTGTTCTCCCAGCTGATGAATTCACAGTCTCGAGTAAACAAATTTTCCTAATCTTTCTGTTCAAGCGCCATCTAC | 0.839 RPM ratio (pull-down/input) |
| GATGATTGTTCTCCCAGCTGATGAATTCCCGATCTCGAGTAAACAAATTTTCCTAATCTTTCTGTTCAAGCGCCATCTAC | 0.712 RPM ratio (pull-down/input) |
| GATGATTGTTCTCCCAGCTGATGAATTGTATGGATCGAGTAAACAAATTTTCCTAATCTTTCTGTTCAAGCGCCATCTAC | 1.04 RPM ratio (pull-down/input) |
| GATGATTGTTCTCCCAGCTGATGAATTAGCATCTTCGAGTAAACAAATTTTCCTAATCTTTCTGTTCAAGCGCCATCTAC | 1.39 RPM ratio (pull-down/input) |
| GATGATTGTTCTCCCAGCTGATGAATTTAACTGCTCGAGTAAACAAATTTTCCTAATCTTTCTGTTCAAGCGCCATCTAC | 0.898 RPM ratio (pull-down/input) |
| GATGATTGTTCTCCCAGCTGATGAATTTTTATTCTCGAGTAAACAAATTTTCCTAATCTTTCTGTTCAAGCGCCATCTAC | 1.06 RPM ratio (pull-down/input) |
| GATGATTGTTCTCCCAGCTGATGAATTGGAGGTGTCGAGTAAACAAATTTTCCTAATCTTTCTGTTCAAGCGCCATCTAC | 0.821 RPM ratio (pull-down/input) |
| GATGATTGTTCTCCCAGCTGATGAATTGCTTGTTTCGAGTAAACAAATTTTCCTAATCTTTCTGTTCAAGCGCCATCTAC | 1.43 RPM ratio (pull-down/input) |
| GATGATTGTTCTCCCAGCTGATGAATTAGCGAATTCGAGTAAACAAATTTTCCTAATCTTTCTGTTCAAGCGCCATCTAC | 0.968 RPM ratio (pull-down/input) |
| GATGATTGTTCTCCCAGCTGATGAATTCAGTTCATCGAGTAAACAAATTTTCCTAATCTTTCTGTTCAAGCGCCATCTAC | 0.935 RPM ratio (pull-down/input) |
| GATGATTGTTCTCCCAGCTGATGAATTGACTTGATCGAGTAAACAAATTTTCCTAATCTTTCTGTTCAAGCGCCATCTAC | 0.925 RPM ratio (pull-down/input) |
| GATGATTGTTCTCCCAGCTGATGAATTCCTGGGATCGAGTAAACAAATTTTCCTAATCTTTCTGTTCAAGCGCCATCTAC | 0.853 RPM ratio (pull-down/input) |
| GATGATTGTTCTCCCAGCTGATGAATTTACATAGTCGAGTAAACAAATTTTCCTAATCTTTCTGTTCAAGCGCCATCTAC | 1.42 RPM ratio (pull-down/input) |
| GATGATTGTTCTCCCAGCTGATGAATTTGCCCACTCGAGTAAACAAATTTTCCTAATCTTTCTGTTCAAGCGCCATCTAC | 0.934 RPM ratio (pull-down/input) |
| GATGATTGTTCTCCCAGCTGATGAATTCAGCAACTCGAGTAAACAAATTTTCCTAATCTTTCTGTTCAAGCGCCATCTAC | 0.923 RPM ratio (pull-down/input) |
